Our source for the EC50 values is patent US20240034784A1 (published 2024).

As a reminder, the EC50 is the concentration giving half of the maximal effect.

The labels stand for the following.
B1: sdab-45-hIgG1Fc (Fc fusion)
chain: QVKLEESGGGLVQAGGSLRLSCAASGSISGINYMAWYRQAPGKQRDLVARAWTTGPPTYAESVKGRFTISRDNAKNTVYLQMNNLKPEDTGVYYCTANTLTSGYWGQGIQVTVSS[sequence of human IgG1 Fc with C220G (EU numbers) omitted]
B2: sdab-43-hIgG1Fc (Fc fusion)
chain: EVQLVESGGGLVQAGGSLRLSCEASGPARNNYYMGWFRQAPGKERELVARINLSGSSIYYADSVKGRFTISRDNAKNTMSLQMNSLKPGDAARYYCHARDIVPGAQDYWGQGTQVTVSA[sequence of human IgG1 Fc with C220G (EU numbers) omitted]
B3: sdab-40-hIgG1Fc (Fc fusion)
chain: QVQLVESGGGLVQAGGSLRVSCAASGRTSSIYDMAWYRQAPGNEREFVARIVWRSGGSTSYADSVKGRFTISRNTAKNTVYLQMNSLKPEDTAMYYCRAFEFPLQIGGQNVYYWGQGTQVTVSS[sequence of human IgG1 Fc with C220G (EU numbers) omitted]
B4: sdab-50-hIgG1Fc (Fc fusion)
chain: QVKLEESGGGLVQAGGSLRLSCAASGSIYRINAMAWYRQAPGKQREYVAEITSTGNTDYADSVKGRFTISRDNAENTVYLQMNSLKPEDTAVYSCNAFIIPSVGMFTSRTYWGRGTQVTVSS[sequence of human IgG1 Fc with C220G (EU numbers) omitted]
B5: sdab-42-hIgG1Fc (Fc fusion)
chain: EVQLVESGGGLVQAGGSLRLACAASGRAIGTYDTNWYRQAPGQQREFVAFINYRGGGATYADSVKDRFTISRDNAANTVYLQMNSLKPEDTAIYLCNAHERFPMGRPPYDYWGQGTQVTVTS[sequence of human IgG1 Fc with C220G (EU numbers) omitted]

For the first assay, the target named is T1, human Claudin 18.2 (human, UniProt P56856 1-261). Nature of the assay: FACS. On the technique in general: In flow cytometry, cells or beads pass a laser one at a time.
In the case of B1, it took 2.5 nM to reach a half-maximal effect (EC50).
B2 gave an EC50 of 1.62 nM.
As to B3, the EC50 turned out to be 2.35 nM.
In the case of B4, the EC50 is 2.29 nM.
On to B5, for which a half-maximal effect (EC50) was put at 1.5 nM.

The next assay addresses T1, human Claudin 18.2. Nature of the assay: FACS. This is another data set of the same source.
B1 returned an EC50 of 7.1 nM. This counts as single-digit nanomolar.
B2 registered an EC50 of 3.7 nM.
On the same count and under the same terms, the value for B3 was 4.31 nM; that for B4 was 4.25 nM; that for B5 was 3.81 nM.
